Data from the supplement of paper PMC8728848.
This is one part of the list.

How the values were obtained:
Experiment in all cases: glycan array binding signal (z-score within array); higher = stronger binding
Conditions in all cases: glycan notation: IUPAC condensed, linker removed
Gal(a1-3)Gal(b1-3)GlcNAc = biological target: Gal(a1-3)Gal(b1-3)GlcNAc
Method in brief: (§1)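 Arrays were curated from the Consortium for Functional Glycomics database, 3228 in total, and kept only where the protein sequence was available. Binding is expressed as a within-array Z-score. This score was averaged across arrays of the same protein sequence at different concentrations or buffers and across linkers, and negative values can be read as non-binding.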

[1] = biological target: Gal(a1-3)Gal(b1-3)GlcNAc(b1-2)Man
Method in brief: as §1

[2] = biological target: Gal(a1-3)Gal(b1-3)GlcNAc(b1-2)Man(a1-3)[Gal(a1-3)Gal(b1-3)GlcNAc(b1-2)Man(a1-6)]Man(b1-4)GlcNAc(b1-4)GlcNAc
Method in brief: as §1

[3] = biological target: Gal(a1-3)Gal(b1-3)GlcNAc(b1-3)GalNAc
Method in brief: as §1

[4] = biological target: Gal(a1-3)Gal(b1-3)GlcNAc(b1-6)GalNAc
Method in brief: as §1

[5] = biological target: Gal(a1-3)Gal(b1-3)[Fuc(a1-4)]GlcNAc(b1-2)Man(a1-3)[Gal(a1-3)Gal(b1-3)[Fuc(a1-4)]GlcNAc(b1-2)Man(a1-6)]Man(b1-4)GlcNAc(b1-4)GlcNAc
Method in brief: as §1

Gal(a1-3)Gal(b1-4)Glc = biological target: Gal(a1-3)Gal(b1-4)Glc
Method in brief: as §1

Gal(a1-3)Gal(b1-4)GlcNAc = biological target: Gal(a1-3)Gal(b1-4)GlcNAc
Method in brief: as §1

[6] = biological target: Gal(a1-3)Gal(b1-4)GlcNAc(b1-2)Man
Method in brief: as §1

[7] = biological target: Gal(a1-3)Gal(b1-4)GlcNAc(b1-2)Man(a1-3)[Gal(a1-3)Gal(b1-4)GlcNAc(b1-2)Man(a1-6)]Man(b1-4)GlcNAc(b1-4)GlcNAc
Method in brief: as §1

[8] = biological target: Gal(a1-3)Gal(b1-4)GlcNAc(b1-3)GalNAc
Method in brief: as §1

[9] = biological target: Gal(a1-3)Gal(b1-4)GlcNAc(b1-6)GalNAc
Method in brief: as §1

[10] = biological target: Gal(a1-3)Gal(b1-4)[Fuc(a1-3)]GlcNAc
Method in brief: as §1

[11] = biological target: Gal(a1-3)Gal(b1-4)[Fuc(a1-3)]GlcNAc(b1-2)Man(a1-3)[Gal(a1-3)Gal(b1-4)[Fuc(a1-3)]GlcNAc(b1-2)Man(a1-6)]Man(b1-4)GlcNAc(b1-4)GlcNAc
Method in brief: as §1

Gal(a1-3)GalNAc = biological target: Gal(a1-3)GalNAc
Method in brief: as §1

[12] = biological target: Gal(a1-3)[Gal(a1-4)]Gal(b1-4)GlcNAc
Method in brief: as §1

[13] = biological target: Gal(a1-4)Gal(b1-3)GlcNAc(b1-2)Man(a1-3)[Gal(a1-4)Gal(b1-3)GlcNAc(b1-2)Man(a1-6)]Man(b1-4)GlcNAc(b1-4)GlcNAc
Method in brief: as §1

Gal(a1-4)Gal(b1-4)Glc = biological target: Gal(a1-4)Gal(b1-4)Glc
Method in brief: as §1

Gal(a1-4)Gal(b1-4)GlcNAc = biological target: Gal(a1-4)Gal(b1-4)GlcNAc
Method in brief: as §1

[14] = biological target: Gal(a1-4)Gal(b1-4)GlcNAc(b1-2)Man(a1-3)[Gal(a1-4)Gal(b1-4)GlcNAc(b1-2)Man(a1-6)]Man(b1-4)GlcNAc(b1-4)GlcNAc
Method in brief: as §1

[15] = biological target: Gal(a1-4)Gal(b1-4)GlcNAc(b1-3)Gal(b1-4)Glc
Method in brief: as §1

Gal(a1-4)GlcNAc = biological target: Gal(a1-4)GlcNAc
Method in brief: as §1

Gal(a1-6)Glc = biological target: Gal(a1-6)Glc
Method in brief: as §1

Gal(b1-2)Gal = biological target: Gal(b1-2)Gal
Method in brief: as §1

Gal(b1-3)Gal = biological target: Gal(b1-3)Gal
Method in brief: as §1

Gal(b1-3)Gal(b1-4)GlcNAc = biological target: Gal(b1-3)Gal(b1-4)GlcNAc
Method in brief: as §1

Gal(b1-3)GalNAc = biological target: Gal(b1-3)GalNAc
Method in brief: as §1

[16] = biological target: Gal(b1-3)GalNAc(a1-3)[Fuc(a1-2)]Gal(b1-4)Glc
Method in brief: as §1

[17] = biological target: Gal(b1-3)GalNAc(a1-3)[Fuc(a1-2)]Gal(b1-4)GlcNAc
Method in brief: as §1

Gal(b1-3)GalNAc(b1-3)Gal = biological target: Gal(b1-3)GalNAc(b1-3)Gal
Method in brief: as §1

[18] = biological target: Gal(b1-3)GalNAc(b1-3)Gal(a1-4)Gal(b1-4)Glc
Method in brief: as §1

[19] = biological target: Gal(b1-3)GalNAc(b1-4)Gal(b1-4)Glc
Method in brief: as §1

[20] = biological target: Gal(b1-3)GalNAc(b1-4)[Neu5Ac(a2-3)]Gal(b1-4)Glc
Method in brief: as §1

Gal(b1-3)GlcNAc = biological target: Gal(b1-3)GlcNAc
Method in brief: as §1

[21] = biological target: Gal(b1-3)GlcNAc(a1-3)Gal(b1-4)GlcNAc
Method in brief: as §1

[22] = biological target: Gal(b1-3)GlcNAc(a1-6)Gal(b1-4)GlcNAc
Method in brief: as §1

Gal(b1-3)GlcNAc(b1-2)Man = biological target: Gal(b1-3)GlcNAc(b1-2)Man
Method in brief: as §1

[23] = biological target: Gal(b1-3)GlcNAc(b1-2)Man(a1-3)[Gal(b1-3)GlcNAc(b1-2)Man(a1-6)]Man(b1-4)GlcNAc(b1-4)GlcNAc
Method in brief: as §1

B1: Pwp3 (Candida glabrata) (protein)
chain: MGSSHHHHHHSSGLVPRGSHMASKNPVDFTTVCQFPDNFSKKPGFLATTARLGLWITGNSYKELLNYPGTFTLTTQQASTTTPNIQLRGTDLFTTIYGLTVYPLYLLVELQGYFVPTQSGMYTFSLTGSDDAAIIFIGNPSTFPCDAFKTWPQATANDITVTDSINPSRTLYMVKGVAYPLRIAYYNGLGNGVLNAAFTDPSGTKRTDWNGYIWQYDQCSTCTYK
glycan array binding signal (z-score) (Gal(a1-3)Gal(b1-3)GlcNAc): -0.233 | glycan array binding signal (z-score) [1]: -0.478 | glycan array binding signal (z-score) [2]: 0.083 | glycan array binding signal (z-score) [3]: -0.665 | glycan array binding signal (z-score) [4]: -1 | glycan array binding signal (z-score) [5]: 1.04 | glycan array binding signal (z-score) (Gal(a1-3)Gal(b1-4)Glc): -0.568 | glycan array binding signal (z-score) (Gal(a1-3)Gal(b1-4)GlcNAc): -0.145 | glycan array binding signal (z-score) [6]: -0.239 | glycan array binding signal (z-score) [7]: -0.338 | glycan array binding signal (z-score) [8]: -0.598 | glycan array binding signal (z-score) [9]: -0.329 | glycan array binding signal (z-score) [10]: -0.365 | glycan array binding signal (z-score) [11]: -0.483 | glycan array binding signal (z-score) (Gal(a1-3)GalNAc): -0.265 | glycan array binding signal (z-score) [12]: -0.87 | glycan array binding signal (z-score) [13]: 0.962 | glycan array binding signal (z-score) (Gal(a1-4)Gal(b1-4)Glc): -0.579 | glycan array binding signal (z-score) (Gal(a1-4)Gal(b1-4)GlcNAc): -0.193 | glycan array binding signal (z-score) [14]: -0.343 | glycan array binding signal (z-score) [15]: -0.304 | glycan array binding signal (z-score) (Gal(a1-4)GlcNAc): -0.186 | glycan array binding signal (z-score) (Gal(a1-6)Glc): -0.257 | glycan array binding signal (z-score) (Gal(b1-2)Gal): 0.009 | glycan array binding signal (z-score) (Gal(b1-3)Gal): -0.24 | glycan array binding signal (z-score) (Gal(b1-3)Gal(b1-4)GlcNAc): 0.839 | glycan array binding signal (z-score) (Gal(b1-3)GalNAc): -0.038 | glycan array binding signal (z-score) [16]: -0.467 | glycan array binding signal (z-score) [17]: 2.05 | glycan array binding signal (z-score) (Gal(b1-3)GalNAc(b1-3)Gal): -0.157 | glycan array binding signal (z-score) [18]: -0.23 | glycan array binding signal (z-score) [19]: 4.7 | glycan array binding signal (z-score) [20]: -0.28 | glycan array binding signal (z-score) (Gal(b1-3)GlcNAc): -0.176 | glycan array binding signal (z-score) [21]: 0.478 | glycan array binding signal (z-score) [22]: 3.24 | glycan array binding signal (z-score) (Gal(b1-3)GlcNAc(b1-2)Man): -0.295 | glycan array binding signal (z-score) [23]: -0.826
